Some of the results follow.
B1: PhoQ; a variant is named by its letters at X, in order, P23837 (parent)
chain: MKKLLRLFFPLSLRVRFLLATAAVVLVLSLAYGMVALIGYSVSFDKTTFRLLRGESNLFYTLAKWENNKLHVELPENIDKQSPTMTLIYDENGQLLWAQRDVPWLMKMIQPDWLKSNGFHEIEADVNDTSLLLSGDHSIQQQLQEVREDDDDAEMTHSVAVNVYPATSRMPKLTIVVVDTIPVELKSSYMVWSWFIYVLSANLLLVIPLLWVAAWWSLRPIEALAKEVRELEEHNRELLNPATTRELTSLVRNLNRLLKSERERYDKYRTTLTDLTHSLKTPLXXLQXXLRSLRSEKMSVSDAEPVMLEQISRISQQIGYYLHRASMRGGTLLSRELHPVAPLLDNLTSALNKVYQRKGVNISLDISPEISFVGEQNDFVEVMGNVLDNACKYCLEFVEISARQTDEHLYIVVEDDGPGIPLSKREVIFDRGQRVDTLRPGQGVGLAVAREITEQYEGKIVAGESMLGGARMEVIFGRQHSAPKDE

Variants of: B1
Assay: enrichment ratio after two sorts for PhoP signalling (ratio (wild type AVST 3.29)); higher = more functional
Details: with PhoP (E. coli)

Variant	enrichment ratio
KRFA	≤ 0.25
SWCA	≤ 0.25
KFYF	≤ 0.25
TSNT	11.9
SGTT	8.51
THRF	≤ 0.25
THDV	≤ 0.25
GTFM	≤ 0.25
ERGL	≤ 0.25
YSYC	≤ 0.25
QGIY	≤ 0.25
FDQL	≤ 0.25
ETLT	≤ 0.25
MIHM	4.4
HSWR	≤ 0.25
GFFR	≤ 0.25
SMWK	≤ 0.25
ANFS	≤ 0.25
GGDQ	≤ 0.25
DWEV	≤ 0.25
RVQC	≤ 0.25
RTIE	≤ 0.25
SCWH	≤ 0.25
GWLR	≤ 0.25
IGPP	≤ 0.25
KEGV	≤ 0.25

Variant	enrichment ratio
KQAW	≤ 0.25
PSLD	≤ 0.25
GHMF	≤ 0.25
YLPE	≤ 0.25
PALS	≤ 0.25
FYIY	≤ 0.25
DIWE	≤ 0.25
DWGH	≤ 0.25
WHGR	≤ 0.25
ICIM	≤ 0.25
DLEL	≤ 0.25
SHWG	≤ 0.25
AEQA	≤ 0.25
HPQR	≤ 0.25
QHMQ	≤ 0.25
TFHP	≤ 0.25
PVHS	≤ 0.25
AVHL	≤ 0.25
YGVQ	≤ 0.25
QNAH	≤ 0.25
IDNS	≤ 0.25
GNIM	13.4
KSSW	0.925
MDGR	≤ 0.25
PVVV	≤ 0.25
YFLF	≤ 0.25

Variant	enrichment ratio
VWGA	≤ 0.25
MWFF	≤ 0.25
YCLN	3.13
VHSL	≤ 0.25
QYGH	≤ 0.25
DDID	≤ 0.25
SEGY	7.5
MISN	8.15
YKQD	≤ 0.25
SHCV	2.51
NPNW	≤ 0.25
VQLF	≤ 0.25
RPRA	≤ 0.25
PFDC	≤ 0.25
AFCP	≤ 0.25
FWGW	≤ 0.25
WSHG	≤ 0.25
NHSQ	≤ 0.25
AHCF	8.2
MRVK	≤ 0.25
QRAV	≤ 0.25
RKPM	≤ 0.25
DGMV	≤ 0.25
QLGV	≤ 0.25
PPDG	≤ 0.25
SLTL	15.2

Variant	enrichment ratio
LVPK	≤ 0.25
VSPP	≤ 0.25
WNRA	≤ 0.25
WITF	≤ 0.25
MKRI	≤ 0.25
WKQL	≤ 0.25
DEFA	≤ 0.25
NHVN	≤ 0.25
HRIM	≤ 0.25
GRLP	≤ 0.25
DFFS	≤ 0.25
PIKR	≤ 0.25
QVAN	≤ 0.25
RRWT	≤ 0.25
KHRR	≤ 0.25
DRDI	≤ 0.25
AWKD	≤ 0.25
MQKA	≤ 0.25
VQSC	≤ 0.25
FDSS	≤ 0.25
WSLP	≤ 0.25
SSAQ	10.4
CFTL	15.7
QMLA	≤ 0.25
DHVD	≤ 0.25
DCPK	≤ 0.25

Variant	enrichment ratio
ITCR	≤ 0.25
WQVK	≤ 0.25
ESID	≤ 0.25
RDES	≤ 0.25
NGEV	≤ 0.25
PRKW	≤ 0.25
IAMN	≤ 0.25
AGCQ	23
NMKA	≤ 0.25
DCMW	≤ 0.25
MMIA	≤ 0.25
WSQL	≤ 0.25
WSTK	≤ 0.25
VRGK	≤ 0.25
YKWE	≤ 0.25
GCKP	≤ 0.25
HDHE	≤ 0.25
HECR	≤ 0.25
SQFS	1.64
TKIW	≤ 0.25
TCGE	3.66
DNLD	≤ 0.25
RRAV	≤ 0.25
SGTK	≤ 0.25
WFGD	≤ 0.25
SQHN	≤ 0.25

Variant	enrichment ratio
PPIE	≤ 0.25
FVMQ	1.68
PGPN	≤ 0.25
SQLI	11.8
IGGA	≤ 0.25
HWQR	≤ 0.25
GGHH	≤ 0.25
QTAT	≤ 0.25
PKYW	≤ 0.25
AKMT	52.1
YNRE	≤ 0.25
RQRD	≤ 0.25
YVRL	≤ 0.25
MQCK	≤ 0.25
YLNM	≤ 0.25
KYHQ	≤ 0.25
NQVY	≤ 0.25
NIKI	≤ 0.25
WFWI	≤ 0.25
FWNL	≤ 0.25
YMSA	≤ 0.25
DPHH	≤ 0.25
FHLG	≤ 0.25

— a collection of fitness landscapes (doi:10.1126/science.1257360)
